This is one part of the list.

Binding signal data for 42 sequences are collected here from paper PMC7819943, “Rice protein-binding microarrays: a tool to detect cis-acting elements near promoter regions in rice”.

This assay addresses T1, OsWOX13 (Oryza sativa, UniProt Q5QMM3 1-267).
T1 sequence: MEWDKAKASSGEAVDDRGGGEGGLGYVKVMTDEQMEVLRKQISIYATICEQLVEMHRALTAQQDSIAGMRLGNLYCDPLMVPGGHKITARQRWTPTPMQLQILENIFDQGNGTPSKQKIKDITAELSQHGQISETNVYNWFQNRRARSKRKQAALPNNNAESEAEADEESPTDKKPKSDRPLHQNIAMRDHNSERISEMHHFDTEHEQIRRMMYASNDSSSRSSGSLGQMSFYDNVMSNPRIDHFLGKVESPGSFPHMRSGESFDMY
Description: protein-binding microarray (RPBM); PBS, 2% BSA, 51.3 ng/ul salmon testes DNA, 50 uM zinc acetate, 200 nM TF, 25 C, 1 h; high values mean tight binding. The following applies: protein: recombinant; tags: N-terminal polyhistidine and DsRed monomer fusion (pET32a); label: CyDye5-dUTP incorporated in the synthesized complementary strand; 3' TTTTT single-stranded linker to array surface; dsDNA, one strand shown. The method, boiled down: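 Per-feature fluorescence intensity (arbitrary units), read on an Axon 4000B scanner, is the binding signal. Transcription factors carrying an N-terminal polyhistidine tag and DsRed fusion were expressed in E. coli BL21-CodonPlus and purified on Ni–NTA. A custom Agilent array, made double-stranded by primer extension with Cy5-dUTP and blocked with 2% BSA, was incubated with 200 nM protein in PBS, 2% BSA, salmon testes DNA and 50 µM zinc acetate at 25 °C for 1 h and then washed.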
Take “GGCCTCCAATCACCCTTATCGTCAGAGGAACACCGCTGCACGGAGTCACCTAGTGCAG”: the binding signal is 11300 fluorescence intensity (a.u.).

Turning to “ATTTCAATCTTAGAATAGATTATGCTTTTCATCTCATTTTCGGAGTCACCTAGTGCAG”, the binding signal was 8940 fluorescence intensity (a.u.).

Regarding “TATAGCAAAATTGATAAACTTAAAGTTGTGCCATTGTTTACGGAGTCACCTAGTGCAG”, the binding signal is 5280 fluorescence intensity (a.u.).

Take “TTTGACTGCACGTCGACTGGTGGATGGATGAGATATTGAGCGGAGTCACCTAGTGCAG”: the binding signal was 9720 fluorescence intensity (a.u.).

As to “AAATGTAATTTGTATGATATTGTAGCTAGACTGTTTGGAGCGGAGTCACCTAGTGCAG”, the binding signal is 10700 fluorescence intensity (a.u.).

On to “CCCTATCAATTACCTTCACTATCATATTAATCATTGTAGGCGGAGTCACCTAGTGCAG”, for which the binding signal was 24100 fluorescence intensity (a.u.).

Consider “TAGATAGATAGATAGATATAGTTGGTGTGTTTGACCCTAGCGGAGTCACCTAGTGCAG”, for which the binding signal is 36400 fluorescence intensity (a.u.).

As for “TTAATTCCATTAATATAATAGATAGATTTCATGGTCTGGGCGGAGTCACCTAGTGCAG”, the binding signal was 14100 fluorescence intensity (a.u.).

“GGAATAATGATTAATCGATGACAGTGGCAAAAGCTATCGGCGGAGTCACCTAGTGCAG”: the binding signal is 22400 fluorescence intensity (a.u.).

As to “AATTTCTATTATTTCCTAATTGTATTTCTATATGGACTCTCGGAGTCACCTAGTGCAG”, the binding signal was 3670 fluorescence intensity (a.u.).

For “TTATAACAATTAATTAAATGTTTCGCGTGTAGTACAATTTCGGAGTCACCTAGTGCAG”, the binding signal is 26500 fluorescence intensity (a.u.).

For “TCCTATTAATTTCTTAAGTCCAAACTTTCTCTACCGTCAGCGGAGTCACCTAGTGCAG”, the binding signal was 9410 fluorescence intensity (a.u.).

Consider “TGGATGTGATATGATGTGATGGAAAGTTAAAAGTTTAAGGCGGAGTCACCTAGTGCAG”, for which the binding signal is 6010 fluorescence intensity (a.u.).

As to “ATGGATCCAATTAACCCTATTTATATAATGTCAAACGCTTCGGAGTCACCTAGTGCAG”, the binding signal is 10200 fluorescence intensity (a.u.).

For “TATAACATAATTACATAGCAATTGTGCTACAATAACATTTCGGAGTCACCTAGTGCAG”, the binding signal is 10900 fluorescence intensity (a.u.).

Turning to “AATATCTAATTGATGCAATTGAAATTGATGTTGATGCATTCGGAGTCACCTAGTGCAG”, the binding signal is 50300 fluorescence intensity (a.u.).

Turning to “TTGCTGTAGATTTACAAATTTACAATAGCCAAAAGCTGAACGGAGTCACCTAGTGCAG”, the binding signal was 3590 fluorescence intensity (a.u.).

Regarding “GGCTCATTGATAATATACGGATTAGATGGAAAAGAGAAAACGGAGTCACCTAGTGCAG”, the binding signal was 3470 fluorescence intensity (a.u.).

As to “GGTAGATTATGGTCAAGATTAGTTGGCCAGCTTTTGGGAACGGAGTCACCTAGTGCAG”, the binding signal is 22600 fluorescence intensity (a.u.).

As to “TGCGGCTTTGATTTGCGGGGTTCACACACGAGTAATTGCACGGAGTCACCTAGTGCAG”, the binding signal was 3210 fluorescence intensity (a.u.).

For “TTTTGACAGCCCTACCTCAACCTCAATACCATTGACAGCACGGAGTCACCTAGTGCAG”, the binding signal is 4980 fluorescence intensity (a.u.).

Turning to “CTATATGTTGTCAAGTAGGAGATTGACTTGTTCTATGTAACGGAGTCACCTAGTGCAG”, the binding signal was 3400 fluorescence intensity (a.u.).

Take “TTCTATGATTGATTGGTCGATAGGAAGACATATAACAGCGCGGAGTCACCTAGTGCAG”: the binding signal is 65500 fluorescence intensity (a.u.).

In the case of “ACATATATAAGTTGATTGATTTGTTATTATAGACGACGAGCGGAGTCACCTAGTGCAG”, the binding signal is 55400 fluorescence intensity (a.u.).

Regarding “CCGTGACAAGCCGATCACTGCCCCTTCATCTGCGATGCTCCGGAGTCACCTAGTGCAG”, the binding signal was 3520 fluorescence intensity (a.u.).

For “TCTATAAACTTAATCAAATTTAAAGAAATTTGATATATAACGGAGTCACCTAGTGCAG”, the binding signal was 4200 fluorescence intensity (a.u.).

On to “GCTGATTGCACCCAAACCGGATCGGCCGCCCACGAAGCTTCGGAGTCACCTAGTGCAG”, for which the binding signal is 22900 fluorescence intensity (a.u.).

On to “CTAGACCTGATTGGAAGAGGAGACATGGGTATATGAGATGCGGAGTCACCTAGTGCAG”, for which the binding signal was 28100 fluorescence intensity (a.u.).

In the case of “CCCGTGGCTCGACTTGATGGCGTGGAGAATGGACGAGTACCGGAGTCACCTAGTGCAG”, the binding signal is 6970 fluorescence intensity (a.u.).

Consider “ATCCTTTTCTCCTTTTCTCGCAAAATCTCCAAAACCGCTTCGGAGTCACCTAGTGCAG”, for which the binding signal is 65500 fluorescence intensity (a.u.).

In the case of “TTCCAACCAATCATAACCCAATAAGAGCAAAATGGAAAACCGGAGTCACCTAGTGCAG”, the binding signal is 4060 fluorescence intensity (a.u.).

For “CAAGGAATTTAATTTTGACATGGAACAGTTCGATTCCCGCCGGAGTCACCTAGTGCAG”, the binding signal is 10600 fluorescence intensity (a.u.).

With “CGCCACATGACAATGACTGACAGGCTGGCCCCACGTCCTACGGAGTCACCTAGTGCAG”, the binding signal is 8550 fluorescence intensity (a.u.).

With “GCCAAATTGATGTAGCAAACAATGTTTCGTCATATTAGTCCGGAGTCACCTAGTGCAG”, the binding signal is 45600 fluorescence intensity (a.u.).

For the sequence “GCTTCCAATCAACCTCCTCTTCCTTCCTAAGCTACGCCAACGGAGTCACCTAGTGCAG”, the binding signal is 14300 fluorescence intensity (a.u.).

“TCCACTCAATCTTCTGTTTCTATTTCCCCGTAATCGAAGCCGGAGTCACCTAGTGCAG”: the binding signal is 4630 fluorescence intensity (a.u.).

Turning to “TCTAATTAATCCATCATTAGCAAATGTTTACTGTAGCACTCGGAGTCACCTAGTGCAG”, the binding signal is 30900 fluorescence intensity (a.u.).

Take “TAGTAGTTAATAATTAATTAATTATGCTCTAATGAACTTTCGGAGTCACCTAGTGCAG”: the binding signal is 44100 fluorescence intensity (a.u.).

Regarding “GCAACTTAGGGTCAACCAATCAGCGGTTATAGTAACTGAACGGAGTCACCTAGTGCAG”, the binding signal was 3390 fluorescence intensity (a.u.).

“GCTGCAATCACAGAAACCTCAGCTCACTCTGGAAGAAGCCCGGAGTCACCTAGTGCAG”: the binding signal is 5420 fluorescence intensity (a.u.).

Take “AGCTAATGTATAGTGATGGCGATAAAGCTTTTGGAACATCCGGAGTCACCTAGTGCAG”: the binding signal was 6140 fluorescence intensity (a.u.).

For “GCTTAATGGAATAATGGAAGCACGCGGCAAAGACGATGGTCGGAGTCACCTAGTGCAG”, the binding signal is 22900 fluorescence intensity (a.u.).
